Here are results for 29 compounds from PubChem BioAssay AID1745853 (National Center for Advancing Translational Sciences (NCATS), 2022).

What all share (test): Primary Screen for Target Class Profiling of Small Molecule Inhibitors of Methyltransferases
Assay [1] has as its target Glycine N-methyltransferase (Homo sapiens) (UniProt Q14749). The conditions noted are these: purified enzyme, MTase-Glo SAH luminescence; measured here: GNMT inhibition; at 40 µM; stronger effect = lower value. The method in brief: (§1)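 Each enzyme was assayed with SAM and its substrate. SAH formation detected by MTase-Glo luminescence; single-point 40 uM screen[…].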

For assay [2], the target named is Guanidinoacetate N-methyltransferase (Homo sapiens) (UniProt Q14353). The conditions noted are these: purified enzyme, MTase-Glo SAH luminescence; measured here: GAMT inhibition; at 40 µM; stronger effect = lower value. The method, boiled down: as §1
Assay [3] deals with Histamine N-methyltransferase (Homo sapiens) (UniProt P50135). The conditions noted are these: purified enzyme, MTase-Glo SAH luminescence; measured here: HNMT inhibition; at 40 µM; stronger effect = lower value. The method, boiled down:
as §1

Assay [4] addresses Nicotinamide N-methyltransferase (Homo sapiens) (UniProt P40261). The conditions noted are these: purified enzyme, MTase-Glo SAH luminescence; measured here: NNMT inhibition; at 40 µM; stronger effect = lower value. The method in brief:
as §1

Assay [5] has as its target Phenylethanolamine N-methyltransferase (Homo sapiens) (UniProt P11086). The conditions noted are these: purified enzyme, MTase-Glo SAH luminescence; measured here: PNMT inhibition; at 40 µM; stronger effect = lower value. The method in brief:
as §1

Some of the results follow. The main result of the screen is listed elsewhere. These columns were measured beside it and carry no call.
% is set by controls: 0 for no effect and ±100 for the full control effect.

Regarding `CCNC(=O)N1C[C@@H](F)[C@@H](OCc2nc3ccc(F)cc3[nH]2)C1`, the activity change, negative = inhibition is -1.29% in assay [1]; -3.84% in assay [2]; -1.74% in assay [3]; -11.3% in assay [4]; -7.32% in assay [5].

With `CC1(C(=O)NC2CCCCCCC2)Cn2c(cc3sccc32)C(=O)N1CCN1CCCCCC1` (stereo not given), the activity change, negative = inhibition in assay [1] was -1.36%; in assay [2], 4.36%; in assay [3], -26.4%; in assay [4], -9.35%; in assay [5] it was -4.44%.

Regarding `CC(C)NC(=O)c1ccc2c(=O)n(Cc3ccccc3)c3nnc(SCc4ccccc4F)n3c2c1`, the activity change, negative = inhibition came to 4.72% in assay [1]; 6.41% in assay [2]; 4.77% in assay [3]; 0.399% in assay [4]; 5.66% in assay [5].

For `CN1C(=O)c2cc(C(=O)NCc3cccc(F)c3)nn2CC1(C)C(=O)NCc1ccccc1` (stereo not given), the activity change, negative = inhibition was -1.61% in assay [1]; -1.96% in assay [2]; 2.02% in assay [3]; -6.91% in assay [4]; -2.51% in assay [5].

Regarding `CCC(C)NC(=O)c1ccc2c(=O)n(CC(C)C)c3nn(CC(=O)Nc4cc(C)cc(C)c4)c(=O)n3c2c1` (stereo not given), the activity change, negative = inhibition turned out to be 4.84% in assay [1]; 0% in assay [2]; 7.01% in assay [3]; 5.08% in assay [4]; 5.02% in assay [5].

Turning to `CCOC(=O)c1cc2n(n1)CC(C)(C(=O)NC1CCCCCC1)N(c1cccc(C)c1C)C2=O` (stereo not given), the activity change, negative = inhibition in assay [1] was 4.28%; in assay [2] it was 3.21%; in assay [3] it was -9.24%; in assay [4], 1.91%; in assay [5] it was 4.7%.

Turning to `COC(=O)Nc1nc2ccc(C(=O)c3ccc(F)cc3)cc2[nH]1`, the activity change, negative = inhibition was -1.11% in assay [1]; -3.29% in assay [2]; 3.43% in assay [3]; -19.7% in assay [4]; -5.41% in assay [5].

Take `Cc1ccc2c(c1)c1c3n2CCN(C(C)c2ccccc2)C3CCC1` (stereo not given): the activity change, negative = inhibition in assay [1] came to 2.92%; in assay [2], 1.27%; in assay [3] it was 6.44%; in assay [4], 4.48%; in assay [5], 1.23%.

Consider `CC(C)Cn1c(=O)c2ccccc2n2c(CCC(=O)NC3CCCCC3)nnc12`, for which the activity change, negative = inhibition is 6.58% in assay [1]; -2.34% in assay [2]; 8.69% in assay [3]; 6.41% in assay [4]; -3.98% in assay [5].

On to `CCc1ccc(C(=O)COC(=O)C(Cc2c[nH]c3ccccc23)NC(=O)c2ccc(CC)cc2)cc1` (stereo not given), for which the activity change, negative = inhibition was found to be 10.4% in assay [1]; 0% in assay [2]; 7.44% in assay [3]; 2.6% in assay [4]; 3.73% in assay [5].

`COc1ncc(-c2ccc3nccc(-c4ccnnc4)c3c2)cc1NS(=O)(=O)c1ccc(F)cc1F`: the activity change, negative = inhibition in assay [1] was -30.4%; in assay [2], -22.1%; in assay [3], -15.6%; in assay [4], -32.5%; in assay [5] it was -25.4%.

Turning to `COc1cccc(CNC(=O)Cn2ccc3cc(S(=O)(=O)N4CCCC4)ccc32)c1OC`, the activity change, negative = inhibition in assay [1] was -5.7%; in assay [2] it was 2.11%; in assay [3] it was -6.89%; in assay [4] it was -8.27%; in assay [5] it was -4.25%.

For the compound `CCN1CCN(Cc2cc3ccc(C)cc3nc2-c2ccc(OC)c(OC)c2)CC1`, the activity change, negative = inhibition in assay [1] was -15.3%; in assay [2], -10.8%; in assay [3] it was -19.9%; in assay [4], -25.9%; in assay [5], -14.3%.

As to `CC(C)CNC(=O)c1ccc2nnc(C(C)(C)C)n2c1`, the activity change, negative = inhibition is -4.63% in assay [1]; -7.21% in assay [2]; -4.17% in assay [3]; -9.36% in assay [4]; -5.16% in assay [5].

With `COc1cccc(-c2[nH]cnc2-c2ccccc2)c1OCCCN(C)C`, the activity change, negative = inhibition in assay [1] was -8.92%; in assay [2], -8.3%; in assay [3], -14%; in assay [4], -16.7%; in assay [5], -2.15%.

For the compound `O=C(CCCc1nnc2n3nc(-c4ccccc4)nc3c3ccccc3n12)NCCCN1CCOCC1`, the activity change, negative = inhibition was -8.31% in assay [1]; 1.94% in assay [2]; -7.7% in assay [3]; 5.77% in assay [4]; -8.16% in assay [5].

For `COCCNC(=O)CC[C@]12CC[C@](C)(O)C[C@H]1C(C)(C)C[C@@H]2NS(=O)(=O)c1ccc(C)cc1`, the activity change, negative = inhibition is -1.88% in assay [1]; -0.794% in assay [2]; -0.281% in assay [3]; -2.77% in assay [4]; 0.524% in assay [5].

`COc1cccc(NC(=O)N2CCn3cccc3C2C(C)C)c1` (stereo not given): the activity change, negative = inhibition in assay [1] is 7.54%; in assay [2], 0%; in assay [3], 0.637%; in assay [4], -0.705%; in assay [5], -0.119%.

`CN(CC1Cc2ccccc2O1)C(=O)c1coc(COc2ccc3c(c2)OCO3)n1` (stereo not given): the activity change, negative = inhibition in assay [1] is -10.5%; in assay [2], -7.21%; in assay [3] it was -4.94%; in assay [4], -20.3%; in assay [5] it was -12.4%.

As for `COc1cccc(CN2C(=O)c3nc4ccccc4n3CC2(C)C(=O)NC2CCCCC2)c1OC` (stereo not given), the activity change, negative = inhibition in assay [1] was 2.21%; in assay [2], 0%; in assay [3] it was 0.442%; in assay [4], 0.67%; in assay [5] it was -3.13%.

On to `CN1C(=O)C(CC(=O)N2CCC(C#N)CC2)(Cc2ccccc2)c2ccccc21` (stereo not given), for which the activity change, negative = inhibition in assay [1] was -0.208%; in assay [2], -0.507%; in assay [3], -1.69%; in assay [4], 2.81%; in assay [5] it was 1.76%.

With `Cc1cccc(C)c1OCC(N)C(C)C` (stereo not given), the activity change, negative = inhibition was -20.8% in assay [1]; 3.84% in assay [2]; 1.47% in assay [3]; -8.13% in assay [4]; -1.4% in assay [5].

Regarding `O=C(NCc1cccs1)c1cc(C2CC2)nc2onc(C3CCCNC3)c12` (stereo not given), the activity change, negative = inhibition in assay [1] was -9.23%; in assay [2], -7.44%; in assay [3] it was -16.7%; in assay [4] it was -19.9%; in assay [5] it was -8.44%.

Turning to `CCn1nc(C)cc1S(=O)(=O)N[C@H]1[C@H]2CCO[C@H]2[C@@H]1N1CCCCC1`, the activity change, negative = inhibition in assay [1] was -2.14%; in assay [2], -2.46%; in assay [3], -1.31%; in assay [4], -0.795%; in assay [5], -1.46%.

Turning to `CC1(C)CC[C@]2(C(=O)O[C@@H]3O[C@H](CO[C@@H]4O[C@H](CO[C@@H]5O[C@H](CO)[C@H](O)[C@H](O)[C@H]5O)[C@@H](O)[C@H](O)[C@H]4O)[C@@H](O)[C@H](O[C@@H]4O[C@H](CO)[C@@H](O)[C@H](O)[C@H]4O)[C@H]3O)[C@H](O)C[C@]3(C)C(=CCC4[C@@]5(C)CC[C@H](O[C@@H]6OC[C@@H](O)[C@H](O)[C@H]6O)[C@@](C)(C(=O)O)C5CC[C@]43C)[C@@H]2C1` (stereo not given in full), the activity change, negative = inhibition was -2.23% in assay [1]; -7.14% in assay [2]; 3.81% in assay [3]; -19.5% in assay [4]; 3.16% in assay [5].

For `COc1ccc(-n2c(C)cc(CNS(=O)(=O)c3ccc4c(c3)oc(=O)n4C)c2C)cc1`, the activity change, negative = inhibition in assay [1] is -0.421%; in assay [2], 0%; in assay [3], 11.4%; in assay [4] it was 3.78%; in assay [5] it was 8.15%.

As for `C=CCNC(=O)N[C@H]1[C@H](O)[C@@H](NCCOC)[C@@H]2OC[C@H]1O2`, the activity change, negative = inhibition in assay [1] was -0.582%; in assay [2], 0.084%; in assay [3] it was 2.49%; in assay [4], -1.47%; in assay [5], 12.1%.

On to `COc1cccc(CN2C(=O)c3cc4sccc4n3CC2(C)C(=O)NC2CCCCC2C)c1OC` (stereo not given), for which the activity change, negative = inhibition was 1.9% in assay [1]; 6.01% in assay [2]; 5.29% in assay [3]; -6.19% in assay [4]; -0.85% in assay [5].

With `Cc1ccc(Cn2c(=O)c3ccccc3n3c(SCC(=O)Nc4cc(C)cc(C)c4)nnc23)cc1`, the activity change, negative = inhibition was 5.45% in assay [1]; 1.89% in assay [2]; 10.5% in assay [3]; 0.717% in assay [4]; 6.52% in assay [5].
